Test results taken from the supplement of paper PMC12067230.
This is a noisy data set.

Assay: amyloid nucleation score relative to library mode (yeast Sup35 reporter selection) (log enrichment difference); higher = more amyloid nucleation; sequences are the first 22 residues of the Bri2 peptide extended by up to 12 random residues
Conditions: random library (experiment): 1;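 active = nucleation score significantly above 0 at FDR 0.05; inactive = not significantly above 0 or absent from output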
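Note: [psi-pin-] Saccharomyces cerevisiae expressing SupN fusions, induced by 100 µM Cu2SO4, selected 7 d at 30 °C without adenine and uracil, scored by deep sequencing of output versus input.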

Sequence	amyloid nucleation score
EASNCFAIRHFENKFAVETLICGVMF	5.06
EASNCFAIRHFENKFAVETLICGVNVECCGDVLL	3.87
EASNCFAIRHFENKFAVETLICGVNWAAIGTGNA	inactive
EASNCFAIRHFENKFAVETLICGVRHGDDRGPSA	inactive
EASNCFAIRHFENKFAVETLICGVRLDCCYWWNG	2.5
EASNCFAIRHFENKFAVETLICGVRNNGGGYRLC	inactive
EASNCFAIRHFENKFAVETLICGVSALLQGRVMW	inactive
EASNCFAIRHFENKFAVETLICGVSDNYATPDWY	inactive
EASNCFAIRHFENKFAVETLICGVSGDNYCCSSM	7.91
EASNCFAIRHFENKFAVETLICGVSSSTCHVAVQ	inactive
EASNCFAIRHFENKFAVETLICGVSTSRPWVFQP	inactive
EASNCFAIRHFENKFAVETLICGVTSCVGAQWQW	6.98
EASNCFAIRHFENKFAVETLICGVTYEACAKLQL	2.98
EASNCFAIRHFENKFAVETLICGVVAWGKRRSGK	6.47
EASNCFAIRHFENKFAVETLICGVVCSCTRNRKA	7.35
EASNCFAIRHFENKFAVETLICGVVLPYCPWALL	inactive
EASNCFAIRHFENKFAVETLICGVVRRCTTGGAF	inactive
EASNCFAIRHFENKFAVETLICGVVSLSCLKCNA	7.44
EASNCFAIRHFENKFAVETLICGVVTS	inactive
EASNCFAIRHFENKFAVETLICGVWFHLCTGTRV	inactive
EASNCFAIRHFENKFAVETLICGVWNTVDNWLWE	6.99
EASNCFAIRHFENKFAVETLICGVWRSLRQGRWE	2.64
EASNCFAIRHFENKFAVETLICGVYGRMFRYTKR	inactive

Sequence	amyloid nucleation score
EASNCFAIRHFENKFAVETLICGW	1.66
EASNCFAIRHFENKFAVETLICGWA	inactive
EASNCFAIRHFENKFAVETLICGWAERPRWCPVR	inactive
EASNCFAIRHFENKFAVETLICGWCQGLVPVQHK	3.4
EASNCFAIRHFENKFAVETLICGWGYLIMWCLPY	inactive
EASNCFAIRHFENKFAVETLICGWISRVSWLQES	inactive
EASNCFAIRHFENKFAVETLICGWKVVAYDPVSS	2.75
EASNCFAIRHFENKFAVETLICGWLPFL	6.75
EASNCFAIRHFENKFAVETLICGWLQRMWDGARP	inactive
EASNCFAIRHFENKFAVETLICGWLVMIRVIDWE	inactive
EASNCFAIRHFENKFAVETLICGWMLTRDVRCSV	inactive
EASNCFAIRHFENKFAVETLICGWPEDGPTLRTR	inactive
EASNCFAIRHFENKFAVETLICGWSFMPCLCRSG	2.6
EASNCFAIRHFENKFAVETLICGWSYLLVTRWLV	inactive
EASNCFAIRHFENKFAVETLICGWTFYEDALWEV	inactive
EASNCFAIRHFENKFAVETLICGWTRKRALNRWT	inactive
EASNCFAIRHFENKFAVETLICGWVEAKLVWACR	inactive
EASNCFAIRHFENKFAVETLICGWVIRLRSGWNE	inactive
EASNCFAIRHFENKFAVETLICGWVVKTPDLTQG	6.43
EASNCFAIRHFENKFAVETLICGYAGTSWCAKSP	0.288
EASNCFAIRHFENKFAVETLICGYD	inactive
EASNCFAIRHFENKFAVETLICGYEFSSRTYVGC	inactive
EASNCFAIRHFENKFAVETLICGYGHHNRSKYWR	2.26

Same assay, conditions: random library (experiment): 2

Sequence	amyloid nucleation score
EASNCFAIRHFENKFAVETLICGVLLLGSVVWGR	3.78
EASNCFAIRHFENKFAVETLICGVLVYSYVRN	inactive
EASNCFAIRHFENKFAVETLICGVPYMNYVGRMG	3.4
EASNCFAIRHFENKFAVETLICGVQRC	inactive
EASNCFAIRHFENKFAVETLICGVS	-0.00995
EASNCFAIRHFENKFAVETLICGVSTGDAVSRYR	inactive
EASNCFAIRHFENKFAVETLICGVTKHIALVTCT	-0.00995
EASNCFAIRHFENKFAVETLICGVTVFRDPRFCL	3
EASNCFAIRHFENKFAVETLICGVV	inactive
EASNCFAIRHFENKFAVETLICGVVMVRYLSSCV	inactive
EASNCFAIRHFENKFAVETLICGVWI	6.75
EASNCFAIRHFENKFAVETLICGVWRYHVHVGSR	inactive
EASNCFAIRHFENKFAVETLICGVYQGRMEHCGI	1.28
EASNCFAIRHFENKFAVETLICGWCSV	7.06
EASNCFAIRHFENKFAVETLICGWDNLRERVCKS	inactive
EASNCFAIRHFENKFAVETLICGWELGSASGKLR	inactive
EASNCFAIRHFENKFAVETLICGWFTLSRYRS	inactive
EASNCFAIRHFENKFAVETLICGWGIGQNGRAYV	3.6

Sequence	amyloid nucleation score
EASNCFAIRHFENKFAVETLICGWKGSSNRWFLC	1.95
EASNCFAIRHFENKFAVETLICGWLIYY	inactive
EASNCFAIRHFENKFAVETLICGWMGRRNMNTCC	inactive
EASNCFAIRHFENKFAVETLICGWSRRRIGKLAR	inactive
EASNCFAIRHFENKFAVETLICGWSRWGYYQFWR	inactive
EASNCFAIRHFENKFAVETLICGWVCVSLVKLRA	-0.148
EASNCFAIRHFENKFAVETLICGWVLWFIRVW	0.408
EASNCFAIRHFENKFAVETLICGWVWIYSTLLYG	inactive
EASNCFAIRHFENKFAVETLICGWWNETNSVGLL	inactive
EASNCFAIRHFENKFAVETLICGWYSRVRYFSRF	-0.0392
EASNCFAIRHFENKFAVETLICGY	inactive
EASNCFAIRHFENKFAVETLICGYDRVELTWRRV	inactive
EASNCFAIRHFENKFAVETLICGYEVA	inactive
EASNCFAIRHFENKFAVETLICGYFHINACNKFR	4.61
EASNCFAIRHFENKFAVETLICGYGSSFANCLCF	5.53
EASNCFAIRHFENKFAVETLICGYGWRTGECCGL	inactive
EASNCFAIRHFENKFAVETLICGYIDIRGFLDLV	4.66
EASNCFAIRHFENKFAVETLICGYIMTIGGWDV	4.58

Same assay, conditions: random library (experiment): 3

Sequence	amyloid nucleation score
EASNCFAIRHFENKFAVETLICGVMFVRISWTVE	inactive
EASNCFAIRHFENKFAVETLICGVNFGDCVGRTY	7.22
EASNCFAIRHFENKFAVETLICGVPVDYAVRSFR	inactive
EASNCFAIRHFENKFAVETLICGVQLRFESVGVL	inactive
EASNCFAIRHFENKFAVETLICGVRG	inactive
EASNCFAIRHFENKFAVETLICGVRLRRL	inactive
EASNCFAIRHFENKFAVETLICGVRQPIGTLFLC	inactive
EASNCFAIRHFENKFAVETLICGVRRHSGKGFHV	inactive
EASNCFAIRHFENKFAVETLICGVRSKPRMRSLP	inactive
EASNCFAIRHFENKFAVETLICGVSCKKVLGSTA	inactive
EASNCFAIRHFENKFAVETLICGVSV	inactive
EASNCFAIRHFENKFAVETLICGVVGGVRWSAGG	2.64
EASNCFAIRHFENKFAVETLICGVVPV	inactive
EASNCFAIRHFENKFAVETLICGVVRGGMEEGSV	inactive
EASNCFAIRHFENKFAVETLICGVVSRRAGVTVL	inactive
EASNCFAIRHFENKFAVETLICGVWGSTDATFNA	4.84
EASNCFAIRHFENKFAVETLICGVWVASKSLLNS	inactive
EASNCFAIRHFENKFAVETLICGVYLLRIVMRCI	inactive
EASNCFAIRHFENKFAVETLICGWAVDRPGQDVQ	inactive

Sequence	amyloid nucleation score
EASNCFAIRHFENKFAVETLICGWEKGVADGRRG	inactive
EASNCFAIRHFENKFAVETLICGWGFCGYRVMEA	4.26
EASNCFAIRHFENKFAVETLICGWLT	5.48
EASNCFAIRHFENKFAVETLICGWMDTTCGPWES	7.24
EASNCFAIRHFENKFAVETLICGWMITDNRMLVW	0.721
EASNCFAIRHFENKFAVETLICGWNR	3.7
EASNCFAIRHFENKFAVETLICGWRARQSSCSTG	inactive
EASNCFAIRHFENKFAVETLICGWRGERLWLKAQ	inactive
EASNCFAIRHFENKFAVETLICGWVCQLLAARMS	1.16
EASNCFAIRHFENKFAVETLICGWWASATLWCPQ	0.0274
EASNCFAIRHFENKFAVETLICGWWPVSRVGASG	inactive
EASNCFAIRHFENKFAVETLICGWWWRSVVDVRD	inactive
EASNCFAIRHFENKFAVETLICGYASRYRHSNVC	inactive
EASNCFAIRHFENKFAVETLICGYASVVFRGNVD	inactive
EASNCFAIRHFENKFAVETLICGYAVTYEVGELR	inactive
EASNCFAIRHFENKFAVETLICGYFN	4.99
EASNCFAIRHFENKFAVETLICGYGWGRKSSKCT	inactive
EASNCFAIRHFENKFAVETLICGYGWVSFRWYEA	inactive
